Laboratory results: the supplement of paper PMC8007513
Structures can show the parent of a compound that is named as a salt. ± gives the standard error. About 130 (10%) of roughly 1,300 compounds showed an effect of 50% or more. Only a part is listed here, and it is no random draw.

Test system: Trichoderma virens ATCC 9645
Experiment: growth yield (OD600) with compound + IPBC relative to untreated control; higher = less growth inhibition
Conditions: compound concentration: 100 uM, IPBC concentration: 200 ng/ml
Outline: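 For each 96-well plate, 100 μl aliquots were prepared with Trichoderma virens ATCC 9645 spores suspended at 15,000 spores ml^−1 in potato dextrose broth. The spores had been harvested from potato dextrose agar plates after 7 days. Library compounds were present at 100 μM final, some wells also receiving a biocide at 200 ng ml^−1, and plates were grown at 30 °C with OD600 read on a BioTek EL800 at 40 h and 72 h. Reported growth, relative to the control lacking both agents, is the mean of duplicate screens.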

## CC(C)(Oc1ccc(Cl)cc1)C(=O)O [Clofibric acid] + CCCCNC(=O)OCC#CI [3-iodo-2-propynyl butylcarbamate (IPBC)]
40 h
  growth yield: 102 ± 3.6%
72 h
  growth yield: 101.1 ± 0.42%

## Cc1cc(=O)n(-c2ccccc2)n1C [Antipyrine] + CCCCNC(=O)OCC#CI [3-iodo-2-propynyl butylcarbamate (IPBC)]
40 h
  growth yield: 84.3 ± 4.6%
72 h
  growth yield: 87.2 ± 4.5%

## Clc1ccc(COC(Cn2ccnc2)c2ccc(Cl)cc2Cl)c(Cl)c1 (configuration not stated) [Miconazole] + CCCCNC(=O)OCC#CI [3-iodo-2-propynyl butylcarbamate (IPBC)]
40 h
  growth yield: 2.8591 ± 3.6e-15%
72 h
  growth yield: 2.41 ± 0.1%

## NC12CC3CC(CC(C3)C1)C2 [Adamantamine fumarate] + CCCCNC(=O)OCC#CI [3-iodo-2-propynyl butylcarbamate (IPBC)]
40 h
  growth yield: 95.3 ± 11%
72 h
  growth yield: 97.2 ± 7.5%

## CC1CCc2c(N3CCC(O)CC3)c(F)cc3c(=O)c(C(=O)O)cn1c23 (configuration not stated) [Nadifloxacin] + CCCCNC(=O)OCC#CI [3-iodo-2-propynyl butylcarbamate (IPBC)]
40 h
  growth yield: 105 ± 7.6%
72 h
  growth yield: 99.1 ± 6.8%

## C[C@@H]1NC(=O)NC1=O [Methylhydantoin-5-(L)] + CCCCNC(=O)OCC#CI [3-iodo-2-propynyl butylcarbamate (IPBC)]
40 h
  growth yield: 96.6 ± 12%
72 h
  growth yield: 96.8 ± 6.4%

## CN1CCN(C2=Nc3cc(Cl)ccc3Nc3ccccc32)CC1 [Clozapine] + CCCCNC(=O)OCC#CI [3-iodo-2-propynyl butylcarbamate (IPBC)]
40 h
  growth yield: 65.6 ± 2.7%
72 h
  growth yield: 93.8 ± 2.7%

## COc1ccc(OC)c(C(O)C(C)N)c1 (configuration not stated) [Methoxamine hydrochloride] + CCCCNC(=O)OCC#CI [3-iodo-2-propynyl butylcarbamate (IPBC)]
40 h
  growth yield: 87.4 ± 7.3%
72 h
  growth yield: 92.4 ± 5.3%

## CCC(NC(C)C)C(O)c1ccc(O)c(O)c1 (configuration not stated) [Isoetharine mesylate salt] + CCCCNC(=O)OCC#CI [3-iodo-2-propynyl butylcarbamate (IPBC)]
40 h
  growth yield: 114 ± 4.8%
72 h
  growth yield: 108.4 ± 0.42%

## CN1CCc2cccc3c2[C@H]1Cc1ccc(O)c(O)c1-3 [R(-) Apomorphine hydrochloride hemihydrate] + CCCCNC(=O)OCC#CI [3-iodo-2-propynyl butylcarbamate (IPBC)]
40 h
  growth yield: 108%
72 h
  growth yield: 100.9 ± 0.42%

## CO[C@@]1(NC(=O)CSCC#N)C(=O)N2C(C(=O)O)=C(CSc3nnnn3C)CS[C@@H]21 [Cefmetazole sodium salt] + CCCCNC(=O)OCC#CI [3-iodo-2-propynyl butylcarbamate (IPBC)]
40 h
  growth yield: 87.2 ± 4.9%
72 h
  growth yield: 86.3 ± 3.9%

## C[C@@H]1[C@H](O)[C@@H](C)/C=C/C=C/C=C/C=C/C=C/C=C/C=C/[C@H](O[C@@H]2O[C@H](C)[C@@H](O)[C@H](N)[C@@H]2O)C[C@@H]2O[C@](O)(C[C@@H](O)C[C@@H](O)[C@H](O)CC[C@@H](O)C[C@@H](O)CC(=O)O[C@H]1C)C[C@H](O)[C@H]2C(=O)O [Amphotericin B] + CCCCNC(=O)OCC#CI [3-iodo-2-propynyl butylcarbamate (IPBC)]
40 h
  growth yield: 37.3 ± 4.6%
72 h
  growth yield: 92.61 ± 0.73%

## CCOC(=O)C(C)(C)Oc1ccc(Cl)cc1 [Clofibrate] + CCCCNC(=O)OCC#CI [3-iodo-2-propynyl butylcarbamate (IPBC)]
40 h
  growth yield: 88.5 ± 4.6%
72 h
  growth yield: 91 ± 1.1%

## CC(=O)N(O)CCCCCNC(=O)CCC(=O)N(O)CCCCCNC(=O)CCC(=O)N(O)CCCCCN [Deferoxamine mesylate] + CCCCNC(=O)OCC#CI [3-iodo-2-propynyl butylcarbamate (IPBC)]
40 h
  growth yield: 98.16 ± 0.32%
72 h
  growth yield: 105 ± 2.1%

## CC(C)/N=c1\cc2n(-c3ccc(Cl)cc3)c3ccccc3nc-2cc1Nc1ccc(Cl)cc1 [Clofazimine] + CCCCNC(=O)OCC#CI [3-iodo-2-propynyl butylcarbamate (IPBC)]
40 h
  growth yield: 83.4 ± 19%
72 h
  growth yield: 117 ± 11%

## O=C1Cc2cc(CCN3CCN(c4nsc5ccccc45)CC3)c(Cl)cc2N1 [Ziprasidone  Hydrochloride] + CCCCNC(=O)OCC#CI [3-iodo-2-propynyl butylcarbamate (IPBC)]
40 h
  growth yield: 106.3 ± 0.48%
72 h
  growth yield: 108 ± 1.9%

## CCN[C@H]1C[C@H](C)S(=O)(=O)c2sc(S(N)(=O)=O)cc21 [Dorzolamide hydrochloride] + CCCCNC(=O)OCC#CI [3-iodo-2-propynyl butylcarbamate (IPBC)]
40 h
  growth yield: 100 ± 4.5%
72 h
  growth yield: 94.6 ± 0.63%

## O=c1cc(-c2ccc(O)c(O)c2)oc2cc(O)cc(O)c12 [Luteolin] + CCCCNC(=O)OCC#CI [3-iodo-2-propynyl butylcarbamate (IPBC)]
40 h
  growth yield: 80.7%
72 h
  growth yield: 103 ± 17%

## CCC(=O)O[C@H]1CC[C@H]2[C@@H]3CCC4=CC(=O)CC[C@]4(C)[C@H]3CC[C@]12C [Testosterone propionate] + CCCCNC(=O)OCC#CI [3-iodo-2-propynyl butylcarbamate (IPBC)]
40 h
  growth yield: 90.06 ± 0.16%
72 h
  growth yield: 99.6%

## CC(C)(C(=O)c1cccnc1)c1cccnc1 [Metyrapone] + CCCCNC(=O)OCC#CI [3-iodo-2-propynyl butylcarbamate (IPBC)]
40 h
  growth yield: 87.5 ± 1.4%
72 h
  growth yield: 87.68 ± 0.84%

## Nc1cc(-c2ccncc2)c[nH]c1=O [Amrinone] + CCCCNC(=O)OCC#CI [3-iodo-2-propynyl butylcarbamate (IPBC)]
72 h
  growth yield: 41.3%

## CC(N)C12CC3CC(CC(C3)C1)C2 (configuration not stated) [Rimantadine Hydrochloride] + CCCCNC(=O)OCC#CI [3-iodo-2-propynyl butylcarbamate (IPBC)]
40 h
  growth yield: 82.76 ± 0.16%
72 h
  growth yield: 89.04 ± 0.1%

## CCC(=O)OCC(=O)[C@@]1(OC(=O)CC)[C@H](C)C[C@H]2[C@H]3[C@H]([C@@H](O)C[C@@]21C)[C@@]1(C)C=CC(=O)C=C1C[C@H]3Cl [Alclometasone dipropionate] + CCCCNC(=O)OCC#CI [3-iodo-2-propynyl butylcarbamate (IPBC)]
40 h
  growth yield: 100 ± 8.9%
72 h
  growth yield: 100 ± 8.6%

## CCCc1nc(C(C)(C)O)c(C(=O)O)n1Cc1ccc(-c2ccccc2-c2nnn[nH]2)cc1 [Olmesartan] + CCCCNC(=O)OCC#CI [3-iodo-2-propynyl butylcarbamate (IPBC)]
40 h
  growth yield: 107 ± 1.3%
72 h
  growth yield: 104 ± 1.4%

## N=C(N)N/N=C/c1c(Cl)cccc1Cl [Guanabenz acetate] + CCCCNC(=O)OCC#CI [3-iodo-2-propynyl butylcarbamate (IPBC)]
40 h
  growth yield: 81.5 ± 6.5%
72 h
  growth yield: 90.2 ± 5.5%

## OC(CCN1CCCCC1)(c1ccccc1)C1CCCCC1 (configuration not stated) [Trihexyphenidyl-D,L Hydrochloride] + CCCCNC(=O)OCC#CI [3-iodo-2-propynyl butylcarbamate (IPBC)]
40 h
  growth yield: 101 ± 16%
72 h
  growth yield: 102 ± 8.6%

## Brc1c(NC2=NCCN2)ccc2nccnc12 [Brimonidine L-Tartrate] + CCCCNC(=O)OCC#CI [3-iodo-2-propynyl butylcarbamate (IPBC)]
40 h
  growth yield: 98 ± 4.3%
72 h
  growth yield: 94.4 ± 1.1%

## CN(C)CCOC(=O)COc1ccc(Cl)cc1 [Meclofenoxate hydrochloride] + CCCCNC(=O)OCC#CI [3-iodo-2-propynyl butylcarbamate (IPBC)]
40 h
  growth yield: 93.2 ± 3.3%
72 h
  growth yield: 96.7 ± 2.1%

## CC(Oc1ccccc1)C(=O)N[C@@H]1C(=O)N2[C@@H]1SC(C)(C)[C@@H]2C(=O)O (some centres not stated) [Phenethicillin potassium salt] + CCCCNC(=O)OCC#CI [3-iodo-2-propynyl butylcarbamate (IPBC)]
40 h
  growth yield: 105 ± 11%
72 h
  growth yield: 105 ± 6.3%

## COc1ccc(C(=O)NCc2ccc(OCCN(C)C)cc2)cc1OC [Itopride] + CCCCNC(=O)OCC#CI [3-iodo-2-propynyl butylcarbamate (IPBC)]
40 h
  growth yield: 107 ± 1.1%
72 h
  growth yield: 102%

## Cn1c([N+](=O)[O-])cnc1COC(N)=O [Ronidazole] + CCCCNC(=O)OCC#CI [3-iodo-2-propynyl butylcarbamate (IPBC)]
40 h
  growth yield: 99 ± 6.2%
72 h
  growth yield: 95.5 ± 5.3%

## C[C@]12CC[C@@H]3c4ccc(O)cc4CC[C@H]3[C@@H]1C[C@@H](O)[C@@H]2O [Estriol] + CCCCNC(=O)OCC#CI [3-iodo-2-propynyl butylcarbamate (IPBC)]
40 h
  growth yield: 83.07 ± 0.79%
72 h
  growth yield: 87.3 ± 1.1%

## CCc1cccc2c3c([nH]c12)C(CC)(CC(=O)O)OCC3 (configuration not stated) [Etodolac] + CCCCNC(=O)OCC#CI [3-iodo-2-propynyl butylcarbamate (IPBC)]
40 h
  growth yield: 98.8 ± 0.95%
72 h
  growth yield: 99.32 ± 0.94%

## CC[N+](CC)(CC)CCC(O)(c1ccccc1)C1CCCCC1 (configuration not stated) [Tridihexethyl chloride] + CCCCNC(=O)OCC#CI [3-iodo-2-propynyl butylcarbamate (IPBC)]
40 h
  growth yield: 90.1 ± 9.1%
72 h
  growth yield: 92.6 ± 6.6%

## CC(Oc1c(Cl)cccc1Cl)C1=NCCN1 (configuration not stated) [Lofexidine] + CCCCNC(=O)OCC#CI [3-iodo-2-propynyl butylcarbamate (IPBC)]
40 h
  growth yield: 88 ± 6%
72 h
  growth yield: 92.4 ± 3.7%

## CC1=C(CC(=O)O)c2cc(F)ccc2/C1=C\c1ccc([S+](C)[O-])cc1 (configuration not stated) [Sulindac] + CCCCNC(=O)OCC#CI [3-iodo-2-propynyl butylcarbamate (IPBC)]
40 h
  growth yield: 89.7 ± 4.3%
72 h
  growth yield: 91.7 ± 3.6%

## CCOC(=O)[C@H](CCc1ccccc1)N[C@@H](C)C(=O)N1CCC[C@H]1C(=O)O [Enalapril maleate] + CCCCNC(=O)OCC#CI [3-iodo-2-propynyl butylcarbamate (IPBC)]
40 h
  growth yield: 87 ± 9.2%
72 h
  growth yield: 93.2 ± 3.5%

## CO/N=C(\C(=O)N[C@@H]1C(=O)N2C(C(=O)O)=C(C[N+]3(C)CCCC3)CS[C@H]12)c1csc(N)n1 [Cefepime hydrochloride] + CCCCNC(=O)OCC#CI [3-iodo-2-propynyl butylcarbamate (IPBC)]
40 h
  growth yield: 92 ± 5.2%
72 h
  growth yield: 106 ± 7.8%

## C[C@]12COC(=O)C[C@@H]1CC[C@@H]1[C@@H]2CC[C@@]2(C)[C@H]1CC[C@]2(C)O [Oxandrolone] + CCCCNC(=O)OCC#CI [3-iodo-2-propynyl butylcarbamate (IPBC)]
40 h
  growth yield: 102.8 ± 0.79%
72 h
  growth yield: 101.8 ± 0.94%
